How the values were obtained:
[1] = test system: M14; assay: NCI in-vitro testing, M14 (Melanoma)
[2] = test system: K-562; assay: NCI in-vitro testing, K-562 (Leukemia)
[3] = test system: MOLT-4; assay: NCI in-vitro testing, MOLT-4 (Leukemia)
[4] = test system: U251; assay: NCI in-vitro testing, U251 (CNS Cancer)
[5] = test system: SF-539; assay: NCI in-vitro testing, SF-539 (CNS Cancer)
[6] = test system: SNB-19; assay: NCI in-vitro testing, SNB-19 (CNS Cancer)
[7] = test system: ACHN; assay: NCI in-vitro testing, ACHN (Renal Cancer)
[8] = test system: RPMI-8226; assay: NCI in-vitro testing, RPMI-8226 (Leukemia)
[9] = test system: 786-0; assay: NCI in-vitro testing, 786-0 (Renal Cancer)
[10] = test system: TK-10; assay: NCI in-vitro testing, TK-10 (Renal Cancer)
[11] = test system: UO-31; assay: NCI in-vitro testing, UO-31 (Renal Cancer)
[12] = test system: T-47D; assay: NCI in-vitro testing, T-47D (Breast Cancer)
[13] = test system: HCT-116; assay: NCI in-vitro testing, HCT-116 (Colon Cancer)
[14] = test system: OVCAR-3; assay: NCI in-vitro testing, OVCAR-3 (Ovarian Cancer)
[15] = test system: OVCAR-5; assay: NCI in-vitro testing, OVCAR-5 (Ovarian Cancer)
[16] = test system: SK-OV-3; assay: NCI in-vitro testing, SK-OV-3 (Ovarian Cancer)
[17] = test system: DU-145; assay: NCI in-vitro testing, DU-145 (Prostate Cancer)
[18] = test system: MDA-MB-435; assay: NCI in-vitro testing, MDA-MB-435 (Breast Cancer)
[19] = test system: EKVX; assay: NCI in-vitro testing, EKVX (Non-Small Cell Lung Cancer)
[20] = test system: NCI-H460; assay: NCI in-vitro testing, NCI-H460 (Non-Small Cell Lung Cancer); conditions: NCI-H450
[21] = test system: NCI-H522; assay: NCI in-vitro testing, NCI-H522 (Non-Small Cell Lung Cancer); conditions: NCI-H622
[22] = Log10 Concentration −4.0 (Molar)
[23] = Log10 Concentration −5.0 (Molar)
[24] = Log10 Concentration −6.0 (Molar)
[25] = Log10 Concentration −7.0 (Molar)
[26] = Log10 Concentration −8.0 (Molar)

In the case of `OCc1cn(Cc2ccc(Cl)cc2)c2ccccc12` [Oncrasin K060, 1H-Indole-3-methanol, 1-[(4-chlorophenyl)methyl]-], the “Mean Optical Densities” value [1, 22] is reported as 0.090, the “Mean Optical Densities” value [1, 23] is reported as 0.760 and the “Mean Optical Densities” value [1, 24] is reported as 1.259. For the same molecule, the “Mean Optical Densities” value [1, 25] was 1.327, the “Mean Optical Densities” value [1, 26] was 1.333 and the “Mean Optical Densities” value [2, 22] was 0.027. The “Mean Optical Densities” value [2, 23] was 0.135, the “Mean Optical Densities” value [2, 24] was 0.468 and the “Mean Optical Densities” value [2, 25] was 0.840. For the same molecule, the “Mean Optical Densities” value [2, 26] was 0.717, the “Mean Optical Densities” value [3, 22] was 0.177 and the “Mean Optical Densities” value [3, 23] was 1.630. The “Mean Optical Densities” value [3, 24] was 1.921, the “Mean Optical Densities” value [3, 25] was 1.827 and the “Mean Optical Densities” value [3, 26] was 1.982. For the same molecule, the “Mean Optical Densities” value [4, 22] was 0.258, the “Mean Optical Densities” value [4, 23] was 0.737 and the “Mean Optical Densities” value [4, 24] was 1.299. For the same molecule, the “Mean Optical Densities” value [4, 25] was 1.550, the “Mean Optical Densities” value [4, 26] was 1.673 and the “Mean Optical Densities” value [5, 22] was 0.116. The “Mean Optical Densities” value [5, 23] was 0.987, the “Mean Optical Densities” value [5, 24] was 1.496 and the “Mean Optical Densities” value [5, 25] was 1.556. For the same molecule, the “Mean Optical Densities” value [5, 26] was 1.534, the “Mean Optical Densities” value [6, 22] was 0.400 and the “Mean Optical Densities” value [6, 23] was 1.287. The “Mean Optical Densities” value [6, 24] was 1.463, the “Mean Optical Densities” value [6, 25] was 1.518 and the “Mean Optical Densities” value [6, 26] was 1.682. The “Mean Optical Densities” value [7, 22] was 0.345, the “Mean Optical Densities” value [7, 23] was 0.608 and the “Mean Optical Densities” value [7, 24] was 1.323. The “Mean Optical Densities” value [7, 25] was 1.516, the “Mean Optical Densities” value [7, 26] was 1.589 and the “Mean Optical Densities” value [8, 22] was 0.248. For the same molecule, the “Mean Optical Densities” value [8, 23] was 0.290, the “Mean Optical Densities” value [8, 24] was 0.649 and the “Mean Optical Densities” value [8, 25] was 1.341. For the same molecule, the “Mean Optical Densities” value [8, 26] was 1.733, the “Mean Optical Densities” value [9, 22] was 0.232 and the “Mean Optical Densities” value [9, 23] was 0.870. The “Mean Optical Densities” value [9, 24] was 1.586, the “Mean Optical Densities” value [9, 25] was 1.758 and the “Mean Optical Densities” value [9, 26] was 1.923. For the same molecule, the “Mean Optical Densities” value [10, 22] was 0.514, the “Mean Optical Densities” value [10, 23] was 0.574 and the “Mean Optical Densities” value [10, 24] was 0.685. For the same molecule, the “Mean Optical Densities” value [10, 25] was 0.607, the “Mean Optical Densities” value [10, 26] was 1.074 and the “Mean Optical Densities” value [11, 22] was 0.292. The “Mean Optical Densities” value [11, 23] was 0.594, the “Mean Optical Densities” value [11, 24] was 1.026 and the “Mean Optical Densities” value [11, 25] was 1.200. For the same molecule, the “Mean Optical Densities” value [11, 26] was 1.290, the “Mean Optical Densities” value [12, 22] was 0.465 and the “Mean Optical Densities” value [12, 23] was 0.453. The “Mean Optical Densities” value [12, 25] was 0.684, the “Mean Optical Densities” value [12, 26] was 1.079 and the “Mean Optical Densities” value [13, 22] was 0.095. For the same molecule, the “Mean Optical Densities” value [13, 23] was 0.296, the “Mean Optical Densities” value [13, 24] was 0.448 and the “Mean Optical Densities” value [13, 25] was 0.625. For the same molecule, the “Mean Optical Densities” value [13, 26] was 1.526, the “Mean Optical Densities” value [14, 22] was 0.158 and the “Mean Optical Densities” value [14, 23] was 0.399. For the same molecule, the “Mean Optical Densities” value [14, 24] was 0.807, the “Mean Optical Densities” value [14, 25] was 1.164 and the “Mean Optical Densities” value [14, 26] was 1.349. For the same molecule, the “Mean Optical Densities” value [15, 22] was 0.185, the “Mean Optical Densities” value [15, 23] was 0.283 and the “Mean Optical Densities” value [15, 24] was 0.940. For the same molecule, the “Mean Optical Densities” value [15, 25] was 0.428, the “Mean Optical Densities” value [15, 26] was 0.628 and the “Mean Optical Densities” value [16, 22] was 0.456. For the same molecule, the “Mean Optical Densities” value [16, 23] was 0.645, the “Mean Optical Densities” value [16, 24] was 0.904 and the “Mean Optical Densities” value [16, 25] was 1.035. For the same molecule, the “Mean Optical Densities” value [16, 26] was 1.084, the “Mean Optical Densities” value [17, 22] was 0.100 and the “Mean Optical Densities” value [17, 23] was 0.475. For the same molecule, the “Mean Optical Densities” value [17, 24] was 0.821, the “Mean Optical Densities” value [17, 25] was 0.888 and the “Mean Optical Densities” value [17, 26] was 0.885. For the same molecule, the “Mean Optical Densities” value [18, 22] was 0.297, the “Mean Optical Densities” value [18, 23] was 1.535 and the “Mean Optical Densities” value [18, 24] was 1.739. For the same molecule, the “Mean Optical Densities” value [18, 25] was 1.793, the “Mean Optical Densities” value [18, 26] was 1.811 and the “Mean Optical Densities” value [19, 22] was 0.470. The “Mean Optical Densities” value [19, 23] was 1.526, the “Mean Optical Densities” value [19, 24] was 1.662 and the “Mean Optical Densities” value [19, 25] was 1.828. The “Mean Optical Densities” value [19, 26] was 1.511, the “Mean Optical Densities” value [20, 22] was 0.201 and the “Mean Optical Densities” value [20, 23] was 0.483. For the same molecule, the “Mean Optical Densities” value [20, 24] was 0.638, the “Mean Optical Densities” value [20, 25] was 1.219 and the “Mean Optical Densities” value [20, 26] was 1.847. The “Mean Optical Densities” value [21, 22] was 0.187, the “Mean Optical Densities” value [21, 23] was 0.773 and the “Mean Optical Densities” value [21, 24] was 1.344. For the same molecule, the “Mean Optical Densities” value [21, 25] was 1.392 and the “Mean Optical Densities” value [21, 26] was 1.465.

— US8883841B2, “Oncogenic ras-specific cytotoxic compound and methods of use thereof” (The Board of Regents of the University of Texas System, priority 2005, dated 2014)
